# Source: PubChem BioAssay (Tox21)
# “And” between values parts separate entries of the source, which are not always exact repeats. Equal values may be shown once. Inconclusive results, whose numbers are uncertain, are shown with a selection of clear calls. For some assays here: Potencies of inconclusive entries are doubtful fits and often do not repeat. Some compounds were tested as several samples or in several runs, with calls that do not always agree. The source made the active and inactive calls. Unless noted, calls come from the whole dose curve; as a rule, active = well fitted curve in the direction sought with a large enough effect in the repeat runs; inconclusive = weak or mixed curves; inactive = no such curve, though single readings can be large; an effect the other way counts as inactive or inconclusive.
# Key:
# [1] = qHTS assay to identify small molecule HDAC inhibitors (AID 1259364); note: potency is the fitted concentration of half-maximal effect; nearly all actives have a fitted effect of over 45% in size
# How it was run: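 Wild-type HCT-116 cells, plated overnight at 37 C, exposed to compounds 2 hr at 37 C; luminogenic HDAC-Glo substrate then added 30 min at room temperature. Luminescence reports relative endogenous class I/II HDAC activity.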
# [2] = qHTS assay to identify small molecule agonists of the sonic hedgehog signaling (Shh) pathway - cell viability counter screen (AID 1259366); note: potency is the fitted concentration of half-maximal effect; nearly all actives have a fitted effect of over 50% in size
# How it was run: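 NIH/3T3-derived 3T3 Gli1-Luc cells (stable Gli1-responsive firefly luciferase reporter) were seeded, rested 4 hr at 37 C/5% CO2, then exposed to compounds in DMSO for 24 hr; viability was read by CellTiter-Fluor fluorescence in the same wells.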
# [3] = qHTS assay to identify small molecule antagonists of the sonic hedgehog signaling (Shh) pathway - cell viability counter screen (AID 1259367); note: nearly all actives have a fitted effect of over 55% in size; note: potency is the fitted concentration of half-maximal effect
# How it was run: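 Using CellTiter-Fluor, viability of Gli1-Luc reporter 3T3 cells is read by fluorescence in the wells used for the Shh luciferase assay. Treatment lasts 23 hr with conditioned medium, then reagent 1 hr at 37C.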
# [4] = qHTS assay to identify small molecule antagonists of the sonic hedgehog signaling (Shh) pathway (AID 1259369; calls by dose curve; note: nearly all actives have a fitted effect of over 45% in size; note: potency is the fitted concentration of half-maximal effect)
# How it was run: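 NIH/3T3-derived Gli1-Luc reporter cells plated 4 h, dosed with compound, then stimulated with conditioned medium for 24 h at 37 C. Firefly luciferase luminescence read after 30 min with detection reagent at room temperature.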
# [5] = target: Estrogen receptor beta (Homo sapiens) (UniProt Q92731); assay: qHTS assay to identify small molecule agonists of the estrogen receptor beta (ER-beta) signaling pathway (AID 1259377; active = well fitted activation curve with a large enough effect in the signal ratio in the repeat runs, not every such curve was filed as active; inconclusive = weak or mixed curves, or effect the other way; the % refers to the signal ratio; note: potency is the fitted concentration of half-maximal effect); settings: ER-beta-UAS-bla HEK293T, beta-lactamase FRET ratio, 16 h; activation: at 92.4 µM (top of the series) unless noted
# How it was run: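 ER-beta-UAS-bla HEK293T (GripTite) cells carrying a UAS-driven beta-lactamase reporter, in medium with 2% charcoal-stripped FBS, were exposed to compounds for 16 hr at 37C; LiveBLAzer B/G FRET substrate was then added and fluorescence read after 2 hours at room temperature.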
# [6] = target: Estrogen receptor beta (Homo sapiens) (UniProt Q92731); assay: qHTS assay to identify small molecule antagonists of the estrogen receptor beta (ER-beta) signaling pathway (AID 1259378; active = well fitted inhibition curve with a large enough effect in the signal ratio in the repeat runs, not every such curve was filed as active; inconclusive = weak or mixed curves, or effect the other way; inactive = no such curve, though single readings can be large or run the other way; the % refers to the signal ratio; note: potency is the fitted concentration of half-maximal effect; for activity, negative = inhibition: % is set by controls: 0 for no effect and ±100 for the full control effect); settings: ER-beta-UAS-bla HEK293T, beta-lactamase FRET ratio, 16 h; activity, negative = inhibition: at 92.4 µM (top of the series) unless noted
# How it was run: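 Antagonist mode: compounds added to beta-lactamase reporter HEK293T ER-beta-UAS cells stimulated with E2 (1nM final), 16 hr at 37C. LiveBLAzer B/G FRET substrate, 2 hours room temperature, fluorescence read-out.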
# [7] = target: Thyrotropin receptor (Homo sapiens) (UniProt P16473); assay: qHTS assay to identify small molecule antagonists of the thyroid stimulating hormone receptor (TSHR) signaling pathway (AID 1259385; calls by dose curve; note: nearly all actives have a fitted effect of over 20% in size; note: potency is the fitted concentration of half-maximal effect; for activity change, negative = inhibition: % is set by controls: 0 for no effect and ±100 for the full control effect); settings: TSHR-HEK293 cAMP HTRF, TSH-stimulated antagonist mode; activity change, negative = inhibition: at 92.4 µM (top of the series) unless noted
# How it was run: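 Antagonist mode: compound-treated TSHR-expressing HEK293 cells were stimulated with 1.5 ng/mL TSH (final) in presence of Ro20-1724 for 30 min at RT. HTRF cAMP detection after 1 h; each compound tested at 15 concentrations, triplicate.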
# [8] = qHTS assay to identify small molecule agonists of the sonic hedgehog signaling (Shh) pathway (AID 1259368; calls by dose curve; note: potency is the fitted concentration of half-maximal effect; nearly all actives have a fitted effect of over 15% in size)
# How it was run: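 NIH/3T3-derived 3T3Gli1-Luc cells with stably integrated Gli1-driven firefly luciferase, 2,000 cells/well, compounds added after 4 hr. Incubated 24 hr at 37C, 5% CO2; luminescence read after 30 min with luciferase reagent at room temperature.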
# [9] = qHTS assay to identify small molecule agonists of the androgen receptor (AR) signaling pathway in the presence of an antagonist - cell viability counter screen (AID 1259379); note: potency is the fitted concentration of half-maximal effect; nearly all actives have a fitted effect of over 25% in size
# How it was run: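 MDA-kb2 cells (MMTV-luciferase, AR/GR), 3,000/well, 5 h attachment, then 3.0 µM nilutamide (final) and compounds at 15 concentrations. Viability by CellTiter-Fluor fluorescence after 16 h at 37 °C, 0% CO2, in the reporter wells.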
# [10] = qHTS assay to identify small molecule agonists or antagonists of the thyroid stimulating hormone receptor (TSHR) signaling pathway - wild type cell line counter screen (AID 1259384; calls by dose curve; note: % is set by controls: 0 for no effect and ±100 for the full control effect); settings: HEK293 wild type, cAMP HTRF counter-screen; cAMP activity change: at 92.4 µM (top of the series), stronger effect = higher value unless noted
# How it was run: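 Counter screen in untransfected Hek293: compounds (15-point titration, triplicate) plus phosphodiesterase inhibitor Ro20-1724 added after 18 h plating; 30 min RT. Intracellular cAMP via competitive d2/cryptate immunoassay, 1 h incubation.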
# [11] = qHTS assay to identify small molecule HDAC inhibitors - cell viability counter screen (AID 1259365); note: potency is the fitted concentration of half-maximal effect; nearly all actives have a fitted effect of over 50% in size
# How it was run: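 Wild-type HCT-116 cells were seeded at 1,500 per well, incubated overnight at 37 C, then exposed to compounds in DMSO for 2hr. Viability was read by CellTiter-Glo luminescence after 30min at room temperature.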
# [12] = qHTS assay to identify small molecule agonists of the estrogen receptor alpha (ER-alpha) signaling pathway in the presence of an antagonist - cell viability counter screen (AID 1259386);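 note: potency is the fitted concentration of half-maximal effect; cells exposed to compounds for 22 h at 37 °C before the viability read; nearly all actives have a fitted effect of over 30% in size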
# How it was run: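 Cell viability in VM7Luc4E2 cells (endogenous full-length ER-alpha) measured by CellTiter-Fluor fluorescence in the same wells as the luciferase screen. Cells pre-cultured 5 days in charcoal-stripped serum, then treated 22 h with compounds at 15 concentrations plus 10.0nM ICI-182,780.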
# [13] = target: Estrogen receptor (Homo sapiens) (UniProt P03372); assay: qHTS assay to identify small molecule antagonists of the estrogen receptor alpha (ER-alpha) signaling pathway using the BG1 cell line in the presence of 0.1 nM 17-beta-estradiol (AID 1259244); note: potency is the fitted concentration of half-maximal effect; nearly all actives have a fitted effect of over 50% in size
# How it was run: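 VM7Luc4E2 cells (endogenous full-length ER-alpha, 4×ERE-luciferase), kept 5 days in phenol red-free, charcoal-stripped FBS medium; 4,000 cells/well. Compounds added with 0.1 nM (final) 17beta-estradiol, 22 hr at 37C; luminescence read with ONE-Glo after 30 min.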
# [14] = qHTS assay to identify small molecule agonists of the estrogen receptor beta (ER-beta) signaling pathway - cell viability counter screen (AID 1259380); note: potency is the fitted concentration of half-maximal effect; nearly all actives have a fitted effect of over 30% in size
# How it was run: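 ER-beta-UAS-bla HEK293T cells in medium with 2% charcoal-stripped FBS, pre-incubated 6 hr, then treated 16 hr at 37C. Cytotoxicity read in the same wells by CellTiter-Glo luminescence after 30 min at room temperature.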
# [15] = qHTS assay to identify small molecule phospholipidosis (PLD) inducers (AID 1259344; active = well fitted curve in the direction sought with a large enough effect; inconclusive = small, poorly fitted or top-dose-only effect, or another doubt; inactive = no such curve, though single readings can be large; an effect the other way counts as inactive or inconclusive; note: % is set by controls: 0 for no effect and ±100 for the full control effect)
# How it was run: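 Fluorescent phospholipid staining (LipidTOX Red) measured by automated microscopy in fixed HepG2 cells after 24 h treatment; nuclei counterstained with Hoechst 33342; amiodarone as reference inducer.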
# [16] = target: Androgen receptor (Homo sapiens) (UniProt P10275); assay: qHTS assay to identify small molecule agonists of the androgen receptor (AR) signaling pathway in the presence of an antagonist (AID 1259381; calls by dose curve; note: potency is the fitted concentration of half-maximal effect; nearly all actives have a fitted effect of over 15% in size)
# How it was run: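 MDA-kb2 cells carrying MMTV-luciferase (AR/GR responsive), 3,000 cells/well, co-treated with 3.0 uM nilutamide final. Compounds at 15 concentrations, 16 hr at 37C without CO2. Luciferase luminescence read after 30 min with ONE-Glo.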
# [17] = qHTS assay to identify small molecule antagonists of the estrogen receptor beta (ER-beta) signaling pathway - cell viability counter screen (AID 1259382); note: potency is the fitted concentration of half-maximal effect; nearly all actives have a fitted effect of over 55% in size
# How it was run: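 ER-beta-UAS-bla HEK293T cells in 2% charcoal-stripped FBS medium, treated with compound plus 1 nM 17-beta-estradiol for 16 h at 37C. Viability read by CellTiter-Glo luminescence after 30 min at room temperature in the same wells.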
# Tags give direction and shape of the fitted curve or compound fluorescence and quenching.
# Chain of UniProt Q92731 (Q92731 whole entry, looked up): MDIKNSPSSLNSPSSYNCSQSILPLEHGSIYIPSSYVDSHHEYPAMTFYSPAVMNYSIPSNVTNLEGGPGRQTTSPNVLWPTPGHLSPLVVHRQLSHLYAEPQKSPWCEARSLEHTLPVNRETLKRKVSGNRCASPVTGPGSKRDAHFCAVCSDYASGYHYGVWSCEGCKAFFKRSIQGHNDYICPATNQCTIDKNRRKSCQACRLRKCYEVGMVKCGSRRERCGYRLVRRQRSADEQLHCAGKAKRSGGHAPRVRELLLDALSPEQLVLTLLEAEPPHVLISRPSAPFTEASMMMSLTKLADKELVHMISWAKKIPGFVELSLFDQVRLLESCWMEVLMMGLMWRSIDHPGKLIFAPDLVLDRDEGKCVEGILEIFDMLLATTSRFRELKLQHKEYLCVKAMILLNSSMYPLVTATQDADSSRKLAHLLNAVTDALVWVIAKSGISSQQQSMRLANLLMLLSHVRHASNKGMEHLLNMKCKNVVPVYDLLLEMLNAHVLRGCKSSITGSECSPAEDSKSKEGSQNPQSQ
# Chain of UniProt P16473 (P16473 whole entry, looked up): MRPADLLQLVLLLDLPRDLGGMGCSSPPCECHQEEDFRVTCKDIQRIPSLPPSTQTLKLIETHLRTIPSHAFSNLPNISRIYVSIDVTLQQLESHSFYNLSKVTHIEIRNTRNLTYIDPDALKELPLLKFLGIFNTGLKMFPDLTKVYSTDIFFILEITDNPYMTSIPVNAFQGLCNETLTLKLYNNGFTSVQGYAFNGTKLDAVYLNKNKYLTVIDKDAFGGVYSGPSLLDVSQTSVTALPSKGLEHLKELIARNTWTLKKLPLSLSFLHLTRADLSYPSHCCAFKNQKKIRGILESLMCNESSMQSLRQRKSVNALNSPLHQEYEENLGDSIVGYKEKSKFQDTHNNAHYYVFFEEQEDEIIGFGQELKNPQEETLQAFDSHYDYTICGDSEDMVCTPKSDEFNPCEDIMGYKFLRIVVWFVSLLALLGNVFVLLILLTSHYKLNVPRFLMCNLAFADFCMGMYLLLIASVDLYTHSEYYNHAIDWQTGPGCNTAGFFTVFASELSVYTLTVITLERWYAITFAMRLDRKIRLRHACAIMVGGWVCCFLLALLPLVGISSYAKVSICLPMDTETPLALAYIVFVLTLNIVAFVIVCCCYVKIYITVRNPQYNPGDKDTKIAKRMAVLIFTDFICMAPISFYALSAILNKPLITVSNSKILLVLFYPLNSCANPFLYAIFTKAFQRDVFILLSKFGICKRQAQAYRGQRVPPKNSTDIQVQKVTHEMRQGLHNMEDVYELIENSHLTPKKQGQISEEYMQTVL
# Chain of UniProt P03372 (P03372 whole entry, looked up): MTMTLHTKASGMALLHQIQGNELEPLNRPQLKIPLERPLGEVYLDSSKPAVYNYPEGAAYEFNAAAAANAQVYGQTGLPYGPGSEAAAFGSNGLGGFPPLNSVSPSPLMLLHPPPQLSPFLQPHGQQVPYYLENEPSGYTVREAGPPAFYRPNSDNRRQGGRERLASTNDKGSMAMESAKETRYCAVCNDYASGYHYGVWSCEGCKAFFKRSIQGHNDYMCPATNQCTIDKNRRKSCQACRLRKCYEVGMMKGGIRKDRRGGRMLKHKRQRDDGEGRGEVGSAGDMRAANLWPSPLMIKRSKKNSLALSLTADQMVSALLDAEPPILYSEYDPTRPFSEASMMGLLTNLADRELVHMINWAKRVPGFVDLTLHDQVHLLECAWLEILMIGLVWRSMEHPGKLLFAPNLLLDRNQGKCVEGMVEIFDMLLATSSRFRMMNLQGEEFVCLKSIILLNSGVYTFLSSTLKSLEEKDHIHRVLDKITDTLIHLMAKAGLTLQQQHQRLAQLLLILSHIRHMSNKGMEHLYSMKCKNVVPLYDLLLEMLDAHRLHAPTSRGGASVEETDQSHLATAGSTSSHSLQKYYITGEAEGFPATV
# Chain of UniProt P10275 (P10275 whole entry, looked up): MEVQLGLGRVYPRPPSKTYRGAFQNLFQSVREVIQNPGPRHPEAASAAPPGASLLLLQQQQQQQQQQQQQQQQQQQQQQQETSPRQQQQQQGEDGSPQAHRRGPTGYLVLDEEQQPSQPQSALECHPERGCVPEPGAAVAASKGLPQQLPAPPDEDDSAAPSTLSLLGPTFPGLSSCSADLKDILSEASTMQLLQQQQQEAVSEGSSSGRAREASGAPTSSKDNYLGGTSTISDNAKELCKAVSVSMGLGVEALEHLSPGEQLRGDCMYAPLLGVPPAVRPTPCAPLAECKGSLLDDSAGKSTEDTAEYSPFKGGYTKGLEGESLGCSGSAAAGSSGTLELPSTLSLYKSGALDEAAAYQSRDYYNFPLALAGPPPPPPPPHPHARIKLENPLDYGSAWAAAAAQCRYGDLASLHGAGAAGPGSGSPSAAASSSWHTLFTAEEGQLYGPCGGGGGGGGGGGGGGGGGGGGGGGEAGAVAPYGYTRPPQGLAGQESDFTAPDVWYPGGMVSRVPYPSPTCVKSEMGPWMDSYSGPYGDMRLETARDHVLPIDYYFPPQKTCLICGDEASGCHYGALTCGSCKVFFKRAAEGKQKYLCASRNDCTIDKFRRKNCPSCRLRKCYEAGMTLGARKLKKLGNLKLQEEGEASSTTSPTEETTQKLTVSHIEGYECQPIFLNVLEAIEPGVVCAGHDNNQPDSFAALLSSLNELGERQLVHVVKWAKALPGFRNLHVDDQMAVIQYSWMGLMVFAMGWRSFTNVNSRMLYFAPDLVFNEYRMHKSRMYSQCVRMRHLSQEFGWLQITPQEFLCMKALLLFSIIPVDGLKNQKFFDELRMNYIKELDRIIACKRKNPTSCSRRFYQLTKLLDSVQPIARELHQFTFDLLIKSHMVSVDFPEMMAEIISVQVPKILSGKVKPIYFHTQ
smiles,measurement,setting,value
O=C(c1ccc(O)cc1)c1ccc(O)cc1O,Potency,[1],"inconclusive: 49.1 µM [inhibitor, partial curve] and inconclusive: 43.3 µM [inhibitor, partial curve, poor fit]"
same,Potency,[2],"inconclusive: 69.3 µM [cytotoxic, single point]"
same,Potency,[3],"inconclusive: 55 µM [cytotoxic, partial curve, poor fit]"
same,Potency,[4],"active: 55 µM and inconclusive: 27.3 µM [inhibitor, full curve]"
same,Potency,[5],active: 13.8 µM and active: 12.2 µM
same,"activity, negative = inhibition",[6],inconclusive: -6.07% and inconclusive: -19.9%
same,Potency,[7],"inconclusive: 69.3 µM [falling, single point]"
O=Nc1ccc(NO)cc1,Potency,[1],"inconclusive: 40.1 µM [inhibitor, partial curve]"
same,Potency,[2],"inconclusive: 50.5 µM [cytotoxic, partial curve]"
same,Potency,[3],"inconclusive: 71.3 µM [cytotoxic, single point]"
same,Potency,[8],"inconclusive: 71.3 µM [activator, single point]"
same,Potency,[4],active: 14.2 µM
same,Potency,[9],"inconclusive: 63.6 µM [cytotoxic, partial curve, poor fit]"
same,cAMP activity change,[10],inconclusive: -3.58%
same,"activity change, negative = inhibition",[7],inconclusive: -5.97%
Oc1cc2ccccc2c2ccccc12,Potency,[1],"inconclusive: 43.3 µM [inhibitor, partial curve]"
same,Potency,[11],active: 24.3 µM
same,Potency,[5],inconclusive: 5.45 µM
same,Potency,[6],"inconclusive: 8.63 µM [rising, full curve]"
same,Potency,[12],active: 13.7 µM
CC(C)(C)NC(=O)[C@H]1CC[C@H]2[C@@H]3CC[C@H]4NC(=O)C=C[C@]4(C)[C@H]3CC[C@]12C,Potency,[13],"inconclusive: 60.4 µM [inhibitor, partial curve]"
same,Potency,[3],inactive
same,Potency,[4],active: 2.7 µM and inactive
same,Potency,[14],"inconclusive: 12.1 µM [cytotoxic, full curve, poor fit] and inconclusive: 10.9 µM [cytotoxic, partial curve, poor fit] and inconclusive: 18.8 µM [cytotoxic, partial curve]"
CC(O)CO (centres undefined),Potency,[15],inactive
same,Potency,[4],"inconclusive: 934 nM [inhibitor, single point] and inconclusive: 3.01 µM [inhibitor, partial curve, poor fit]"
same,Potency,[14],"inconclusive: 74.2 µM [rising, single point]"
O=C(c1ccc(O)cc1O)c1ccc(O)cc1O,Potency,[1],"inconclusive: 54.5 µM [inhibitor, partial curve] and inconclusive: 27.3 µM [inhibitor, partial curve]"
same,Potency,[11],"inconclusive: 54.5 µM [rising, partial curve]"
same,Potency,[3],"inconclusive: 68.7 µM [cytotoxic, partial curve, poor fit] and inconclusive: 27.3 µM [cytotoxic]"
same,Potency,[4],active: 17.2 µM and active: 24.3 µM
same,Potency,[5],active: 8.64 µM and active: 7.7 µM
same,"activity, negative = inhibition",[6],inconclusive: -19.5% and inconclusive: 4.85%
same,Potency,[14],"inconclusive: 77 µM [rising, single point]"
same,Potency,[16],"inconclusive: 30.7 µM [rising, partial curve] and inconclusive: 24.3 µM [rising, partial curve]"
same,Potency,[17],"inconclusive: 61.1 µM [rising, partial curve, poor fit]"
same,Potency,[7],"inconclusive: 0.545 µM [falling, single point]"
NC(=O)C1(N2CCCCC2)CCN(CCCN2c3ccccc3CCc3ccc(Cl)cc32)CC1,Potency,[13],"inconclusive: 33.5 µM [inhibitor, single point]"
same,Potency,[2],active: 23.7 µM
same,Potency,[6],active: 11.9 µM
same,Potency,[9],active: 23.7 µM
same,Potency,[17],active: 21.1 µM
same,Potency,[7],active: 29.8 µM
same,Potency,[12],inconclusive: 33.5 µM [cytotoxic]
